# Measurements published in PubChem BioAssay AID686978 (National Center for Advancing Translational Sciences (NCATS), 2013).
# In all, about 420,000 compounds went through this assay and about 64,000 (15%) were called active. The shares of active, inactive and inconclusive entries below differ from those in the screen. Calls come from the whole dose curve; as a rule, active = well fitted inhibition curve with a large enough effect; inconclusive = small, poorly fitted or top-dose-only effect; inactive = flat fitted curve, though single readings scatter. No potency is given beside an inconclusive call; the fits are too rough.
# Assay: qHTS for Inhibitors of human tyrosyl-DNA phosphodiesterase 1 (TDP1): qHTS in cells in absence of CPT; note: nearly all actives have a fitted effect of over 55% in size
# Conditions: DT40 Tdp1-/- hTDP1 cells, no CPT, ATP luminescence, 48 h; activity change, negative = growth inhibition: at 46.2 µM (top of the series) unless noted
# How it was run: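 Growth kinetics read by CellTiter-Glo luminescence after ≥48 hr at 37 °C. Cells: DT40 Tdp1-/- stably carrying human TDP1, 400 per well, compound exposure in the absence of CPT (DMSO vehicle).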
# % is set by controls: 0 for no effect and ±100 for the full control effect; potency is the fitted concentration of half-maximal effect; tags give direction and shape of the fitted curve.
Structure (SMILES),Potency,"activity change, negative = growth inhibition"
O=C(C1CCCN(S(=O)(=O)c2cc(Cl)ccc2Cl)C1)N1CCCC1 (centres undefined),inactive,
COC(=O)c1onc(-c2c(OC)cc(OC)cc2OC)c1C(=O)OC,inactive,
COc1ccc(N(C(=O)c2cnccn2)C(C(=O)NC2CCCCC2)c2cc(OC)c(OC)c(OC)c2)cc1 (centres undefined),,inconclusive: -30.6% [inhibitor]
Nc1[nH]c(C(=O)c2ccccc2)c(-c2ccccc2C(F)(F)F)c1C(=O)c1cccs1,active: 23.1 µM,
O=C(c1cc2ccccc2oc1=O)N(Cc1cccs1)Cc1ccccc1Cl,"inconclusive [inhibitor, single point]",
C#CCOc1c(Cl)cc(/C=C2/C(=O)ON=C2C)cc1OC,"inconclusive [inhibitor, single point]",
Cc1oc(-c2ccc(Cl)cc2)nc1CS(=O)CC(=O)NCCc1ccccc1 (centres undefined),"inconclusive [inhibitor, single point]",
CCCCCC(=O)Nc1c2c(nc3ccccc13)CCC2,inactive,
OB(O)c1cc2ccccc2s1,"inconclusive [inhibitor, full curve]",
O=C(c1ccccc1)C(O)(Cc1ccccc1)c1ccccc1 (centres undefined),"inconclusive [inhibitor, single point]",
COc1ccc(N2C(=O)CSC23C(=O)N(Cc2cccc(C(F)(F)F)c2)c2ccccc23)cc1 (centres undefined),active: 14.6 µM,
O=C(O)C(=O)/C(=C\c1ccccc1)c1ccc2ccccc2n1,inactive,
CC(C)(C)[C@@H]1C=C(C(=O)N2CCN(Cc3ccccc3)CC2)O[C@H](OCc2ccc(CO)cc2)C1,"inconclusive [inhibitor, single point]",
Cc1ccc(C)c(S(=O)(=O)Nc2ccc(O)cc2)c1,"inconclusive [inhibitor, partial curve, poor fit]",
COc1cc(C(O)c2nc(-c3ccccc3C)cs2)ccc1F (centres undefined),"inconclusive [inhibitor, single point]",
CCCn1cc(S(=O)(=O)CC(=O)N2CCc3ccccc32)c2ccccc21,"inconclusive [inhibitor, single point]",
Cc1cc(OCc2cc(C(=O)NC(C)c3c(C)nn(C)c3C)no2)cc(C)c1Cl (centres undefined),"inconclusive [inhibitor, single point]",
COc1c(C)cc(C(O)c2ncc(-c3cccc(C(F)(F)F)c3)[nH]2)cc1C (centres undefined),"inconclusive [inhibitor, single point]",
O=C(NCCc1ccccc1)c1cccc2c1C(=O)N(C1CCCCC1)C2,"inconclusive [inhibitor, single point]",
CC(C)(C)c1ccc(S(=O)(=O)NCc2ccccn2)cc1,,inconclusive: -30.1% [inhibitor]
Cn1c(NC(=O)CCC2CCCCC2)cc(=O)n(C)c1=O,"inconclusive [inhibitor, single point]",
CN(CCc1ccccn1)C(=O)c1nn2c(C(F)(F)F)cc(-c3ccco3)nc2c1Cl,"inconclusive [inhibitor, partial curve, poor fit]",
CCNc1nc(NCC)nc(N/N=C/c2ccc(O)c(OC)c2)n1,"inconclusive [inhibitor, single point]",

Structure (SMILES),Potency,"activity change, negative = growth inhibition"
COc1ccc(Cc2nnc(NCCO)[nH]c2=O)cc1,inactive,
CCNC(=S)N(Cc1ccc(OC)cc1)C1CC(=O)N(c2ccc(OCC)cc2)C1=O (centres undefined),"inconclusive [inhibitor, single point]",
O=S(=O)(c1ccccc1F)N1CCN(CCc2ccccc2)CC1,"inconclusive [inhibitor, single point]",
Cn1c(=O)n(C)c2cc(N3CCCC3)c(NC(=O)c3cccc(F)c3)cc21,"inconclusive [inhibitor, single point]",
COC(=O)c1ccc(-n2c(C)cc(C(=O)COC(=O)C3=COCCO3)c2C)cc1,"inconclusive [inhibitor, single point]",
COc1ccccc1-c1nc(C#N)c(N2CCN(Cc3ccccc3)CC2)o1,active: 23.1 µM,
COc1ccccc1CNc1nc(-c2ccco2)nn1S(C)(=O)=O,"inconclusive [inhibitor, partial curve]",
CC(C)C[C@H](NC(=O)Nc1ccc2c(c1)OCCO2)C(=O)O,inactive,
CCCN=C(C)C1=C(O)c2ccccc2C1=O,"inconclusive [inhibitor, partial curve]",
CC(=O)c1cc(C(=O)N2CCc3c([nH]c4ccccc34)C2C2CCCCC2)[nH]n1 (centres undefined),"inconclusive [inhibitor, single point]",
COc1cc(OC)cc(C(=O)OCC(=O)NC(C)CCc2ccccc2)c1 (centres undefined),"inconclusive [inhibitor, single point]",
Cc1cc2nc(C3CCCN(C(=O)NCc4ccccc4)C3)[nH]c2cc1C (centres undefined),"inconclusive [inhibitor, partial curve]",
O=C(OCc1nnc(-c2ccccc2)o1)C1CC(=O)N(CCc2ccccc2)C1 (centres undefined),"inconclusive [inhibitor, single point]",
Fc1ccc(COc2ccccc2C(=S)N2CCCC2)cc1,"inconclusive [inhibitor, single point]",
O=C(C#Cc1ccccc1)c1ccccc1,active: 0.58 µM,
CCOc1ccccc1CNC(=O)C1CCN(S(=O)(=O)N2CCC(C)CC2)CC1,"inconclusive [inhibitor, single point]",
CCOC(=O)Cn1nc(C)c(NC(=O)COc2ccccc2)c1C,"inconclusive [inhibitor, single point]",
CC(SC(C)C(=O)NN=Cc1ccc(F)cc1)C(=O)NN=Cc1ccc(F)cc1 (centres undefined),"inconclusive [inhibitor, partial curve]",
COc1cc(OC)c(NS(=O)(=O)c2c(C(=O)N3CCCCCC3)c(C)n(C)c2C)cc1Cl,active: 20.6 µM,
COc1cc(CNCc2ccccn2)ccc1OCc1cccc(Cl)c1,"inconclusive [inhibitor, single point]",
Cc1c(C)n(CC(O)CN2C(=O)c3ccccc3S2(=O)=O)c2ccccc12 (centres undefined),inactive,
C=CCc1cccc(CNc2nc3ccccc3n2C(C)C)c1O,"inconclusive [inhibitor, single point]",
Cc1ccc(N(C)C(=O)c2ccc3c(Cl)c4c(nc3c2)CCC4)cc1C,"inconclusive [inhibitor, single point]",

Structure (SMILES),Potency,"activity change, negative = growth inhibition"
O=C(OCn1ncc(Br)c(Br)c1=O)c1ccc(F)cc1,active: 1.03 µM,
COc1ccc(-n2cc(-c3ccccc3)nc2SCC(=O)Nc2ccccc2C)cc1,"inconclusive [inhibitor, single point]",
N#Cc1cc(-c2ccccc2)nc(N2CCNCC2)n1,"inconclusive [inhibitor, single point]",
O=C1CC(c2ccc3c(c2)OCO3)c2cc3c(cc2N1)OCO3 (centres undefined),"inconclusive [inhibitor, single point]",
CC(=O)c1cccc(-c2ccnc3c2CC(C(=O)Nc2ccc(F)c(Cl)c2)O3)c1 (centres undefined),active: 20.6 µM,
Oc1[nH]c(=S)sc1/C=C1\C(c2ccccc2)=Nc2ccccc21,"inconclusive [inhibitor, single point]",
CS(=O)(=O)N(Cc1ccccc1)c1ccc(C(=O)NCc2cccnc2)cc1,"inconclusive [inhibitor, partial curve]",
CC(C)(C)c1ccc(C(=O)C2CCCN(C(=O)CCn3cncn3)C2)cc1 (centres undefined),"inconclusive [inhibitor, single point]",
COc1ccc(N(Cc2cccs2)C(=O)COc2cccc(C)c2C)cc1,active: 18.4 µM,
O=[N+]([O-])c1cccc(N/N=C/c2cccc(O)c2O)c1,inactive,
CN(C)C(=O)c1nc2ccc(Cl)cn2c1CN1CCCC(OCc2ccccc2)C1 (centres undefined),"inconclusive [inhibitor, full curve, poor fit]",
COc1ccc(NC(=O)C2OCCc3ccccc32)c(OC)c1 (centres undefined),"inconclusive [inhibitor, single point]",
COc1ccc(-c2nc3cccc(C)n3c2Nc2ccc(C)cc2)cc1,active: 12.6 µM,
Cc1cc(OC(=O)c2ccccc2Br)cc(=O)n1C,"inconclusive [inhibitor, single point]",
Nc1nc(SCc2ccccn2)c2ncn(C3OC(CO)C(O)C3O)c2n1 (centres undefined),inactive,
S=C(NCc1cccs1)Nc1cccc(Cl)c1,,inconclusive: -31.2% [inhibitor]
COc1ccc(OC)c(NC(=O)c2cc(-c3cc(C)c(C)cc3O)n[nH]2)c1,"inconclusive [inhibitor, single point]",
Cc1c(C(=O)N(C)Cc2nccs2)sc2ncnc(NCC3CCCO3)c12 (centres undefined),"inconclusive [inhibitor, single point]",
Cc1nnc(-c2ccc(Oc3ccc(Br)cc3)c([N+](=O)[O-])c2)o1,active: 13 µM,
CCN(CC)S(=O)(=O)c1ccc(N(C)C)c(NC(=O)CSCc2c(C)noc2C)c1,"inconclusive [inhibitor, single point]",
CC1(C)Cc2ccccc2C(COc2ccccc2)=N1,"inconclusive [inhibitor, single point]",
Cc1cccc(CC(=O)N2CC(=O)Nc3ccc(C)cc3C2c2ccc(F)cc2)c1 (centres undefined),"inconclusive [inhibitor, single point]",
Cc1ccc(NC(=O)NCc2cccn2C)cc1C,"inconclusive [inhibitor, single point]",
